Measured values published in the supplement of paper PMC10338343.
± gives the standard deviation. In all, about 6,600 sequences were measured (“pre-steady-state target cleavage rate”: median about 0.07, highest 2% from about 0.72 on). The entries are a selection whose mix differs from that of the whole data set.

Tested on: MIWI (PIWIL1) piRISC loaded with Kctd7 piRNA (30 nt)
Test: pre-steady-state target cleavage rate (min^-1); MIWI and MILI are mouse PIWI proteins and EfPiwi is from a freshwater sponge; tags in brackets are library labels; higher = faster piRNA-guided slicing of the target
Details: guide: Kctd7 piRNA 5'p-UGUUAAUCUCUCAGAGAAGGUGACAGUGAU; auxiliary factor: 500 nM mouse GTSF1
In short: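 The pre-steady-state cleavage rate came from a burst-and-steady-state fit to pooled data from three Cleave-'n-Seq trials, in which uncleaved targets were sequenced and normalised to depth and to weakly complementary targets. Each reaction held 0.1 nM transcribed, DNA-blocked target RNA library and 1 nM active affinity-purified piRISC carrying one synthetic guide, with or without 500 nM GTSF1 partner protein, in HEPES–potassium acetate buffer at 33 °C for 0–8 or 0–960 min. k3 was capped at 0.0001 min^-1.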

| Sequence | pre-steady-state target cleavage rate |
| --- | --- |
| UAGUGAGUCACCUUCUCUGAGAGAUUAGACA | 0.285 ± 0.047 |
| UAGUGAGUCUCCUUCUCUGAGAGUUUAACA | 0.271 ± 0.05 |
| UUCACUGCACCUUCUCUGAGAGAUUAACA | 0.675 ± 0.038 |
| UAGUGACUCACCUUGUCAGAGAGAUUAACA | 0.0182 ± 0.0042 |
| UAGACUGUGACCUUCUCUGACAGAUUAACA | 0.249 ± 0.026 |
| UUCACUGUGUCCUUCUCUGAGAGAUUAAGA | 0.138 ± 0.024 |
| UACACUGUCACCAUCUCUCAGAGAUUAACA | 0.0433 ± 0.0098 |
| UAGUGACAGUCAUUCUCUGAGAGAUUAACA | 0.0075 ± 0.0025 |
| UAGACAGUCACCUUCUCUGAGAGAAUAACA | 0.394 ± 0.063 |
| UAGUGACAGUGGAAGUCUGAGACAUAAACA | < 0.0001 |
| UAGUGUGUCAUCUUCUCUGAGAGAUUAACA | 0.487 ± 0.026 |
| UAGUGACAGACCUUGUCUGUGAGAUUAACA | 0.00699 ± 0.0042 |
| UAGUGAGUCACCUUGUCUGAGAGAUUAAGA | 0.0318 ± 0.0098 |
| UAGUGACAGUCCUUCUGUGAGAGAUUAACA | 0.0195 ± 0.0039 |
| UAGUGUGUCACCUUCUCUGAGAGAUUUUCA | 0.114 ± 0.019 |
| UAGUGAGUCAGCUUCUCUGACAGAUUAACA | 0.166 ± 0.02 |
| UAGUGUGUCACCUUCUCUGAGUCAUUAACA | 0.0174 ± 0.0057 |
| UAGUGACUCACCUUCUCUGACAGAUUAAGA | 0.0163 ± 0.0043 |
| UAGUGACAGUCCUUCUCUGAGUGAUUAACA | 0.00395 ± 0.0021 |
| UUCACUGUCACCUUCCCUGAGAGAUUAACA | 0.436 ± 0.059 |
| UUGACUGUCACCUUCUCAGAGAGAUUAACA | 0.346 ± 0.021 |
| UAGUGACAGACCUUCUCUGACAGAUUAACA | 0.0495 ± 0.0088 |
| UAGUGUGUCACCUGUCUCUGAGAGAUUAACA | 0.434 ± 0.027 |
| UUCACUGUCACCUUCUCUGAGACUUUAUGA | 0.00438 ± 0.0033 |

| Sequence | pre-steady-state target cleavage rate |
| --- | --- |
| UAGUGAGUCACCUUCUCUCAGAGAUUUACA | 0.0294 ± 0.0092 |
| UAGUGAGUCACCUUCUCUGAGAGAUUAAACA | 0.496 ± 0.049 |
| AUCACUGUCACCUUAUCUGAGAGAUUAACA | 0.63 ± 0.025 |
| AUCACUGUCACCUUCUCUGAGAGGUUAACA | 0.383 ± 0.03 |
| AUCACUGUCACCUUCUCUGAGACAAUAACA | 0.0188 ± 0.0067 |
| UAGUGUGUCACCUUCUCUGAGAGAUUACA | 0.104 ± 0.021 |
| UAGUCAGUCACCUUCUGUGAGAGAUUAACA | 0.639 ± 0.034 |
| UAGUGAGUCACCUUGUGUGAGAGAUUAACA | 0.131 ± 0.019 |
| UAGUCUGUCAGCUUCUGUGAGAGAUUAACA | 0.392 ± 0.02 |
| UUCACUGUCACCUACACUGAGAGAUUAACA | 0.377 ± 0.021 |
| UAGUGAGUCACCUUCUCUAGAGAUUAACA | 0.177 ± 0.017 |
| UAGUGACAGUCCUUCUCUGAGAGAUUAGCA | 0.0335 ± 0.0075 |
| AUCACUGUCACCUUCUCUGAGAGAUAAUCA | 0.128 ± 0.021 |
| AUCACUGUCACCUUCUCUGAGAGUAUAUGA | 0.0293 ± 0.011 |
| UAGUGACACACCUUCUCUGAGAGUUUAACA | 0.197 ± 0.038 |
| UAGUGACAGUCCUUCUAUGAGAGAUUAACA | 0.0126 ± 0.0053 |
| UAGUCUGUCAGCUACUCUGAGAGAUUAACA | 0.485 ± 0.029 |
| UAGUGAGUCACCAUCUCUGAGAGAUAAACA | 0.327 ± 0.039 |
| UAGUGAGUCACCUUCUAUGAGAGAUUAACA | 0.22 ± 0.018 |
| UAGUGACAGUGCUUCUCUGAGAGAUAACA | < 0.0001 |
| UUCACUGUGACCUUCUCUGAGAGAUAAACA | 0.214 ± 0.023 |
| AUCACUGUCACCUUCUUCUGAGAGAUUAACA | 0.212 ± 0.046 |
| AUCACUGUCACCUACUCAGAGAGAUUAACA | 0.152 ± 0.015 |
| UAGUGACUCACCUUCUCUGAGGGAUUAACA | 0.486 ± 0.031 |

| Sequence | pre-steady-state target cleavage rate |
| --- | --- |
| AUCACUGUCACCUUCUCUCUGAGAUUUUGA | 0.0121 ± 0.0059 |
| UAGUCACACACCUUCUCUGAGAGAUUAAGA | 0.188 ± 0.034 |
| UACAGUGUCACCUUCUCUGAGAGAUUAAGA | 0.128 ± 0.025 |
| AUCACUGUCUCCUUGUCUGAGAGAUUAACA | 0.412 ± 0.061 |
| UAGUGACAGUCCUUCUCUGAGGGAUUAACA | 0.0348 ± 0.0076 |
| UAGUGAGUCACCUUCUCUGAGAGUAUUUGA | 0.104 ± 0.029 |
| UAGUGUGUCACCUUCUCUGUGACAUUAACA | 0.0104 ± 0.0036 |
| UAGUGACAGUGGAAGUCAGAGAGUUUAACA | < 0.0001 |
| AUCACUCUCACCUUCUCUGAGAGAUAUUGA | 0.0172 ± 0.0076 |
| UAGACUGUCACCUUCUCUGAGCGAUUAACA | 0.0506 ± 0.007 |
| UAGUGACACACCUUCUCUGAAAGAUUAACA | 0.384 ± 0.029 |
| UAGUGACUCUCGUUCUCUGAGAGAUUAACA | 0.00773 ± 0.0047 |
| AUCACUGUCACCUUCUCUGUCAGAUUAUGA | 0.0125 ± 0.007 |
| AUCACUGUCACCUACUCUGAGAGAAUAACA | 0.41 ± 0.064 |
| UAGUCUGUCACCUUCACUGAGUGAUUAACA | 0.0279 ± 0.0062 |
| UAGUGAGACUCCUUCUCUGAGAGAUUAACA | 0.243 ± 0.021 |
| UAGUGACACACCUUCUCUGAGAGAUUAUGA | 0.053 ± 0.011 |
| UAGUGACUCACCUUCUCUGAGAGAUCAACA | 0.338 ± 0.052 |
| UAGUGUGUCACCUUCUCUGAGAGAGUUAACA | 0.433 ± 0.061 |
| AUCACUGUCACCUUCUCUGACAGAUAAACA | 0.0189 ± 0.0056 |
| UUCACUGUCACCUUGACUGAGAGAUUAACA | 0.167 ± 0.021 |
| UUCACAGUCACCUUCUCAGAGAGAUUAACA | 0.51 ± 0.031 |
| UAGUGUGUCACCUUCUCUGAGACAUAAACA | 0.0331 ± 0.0077 |
| UUCACUGUCACCUUCUCUGAGAGAUCAACA | 0.233 ± 0.037 |

| Sequence | pre-steady-state target cleavage rate |
| --- | --- |
| UAGUCUGACACCUUCUGUGAGAGAUUAACA | 0.409 ± 0.021 |
| UUCACUGUCAGGUUCUCUGAGAGAUUAACA | 0.603 ± 0.041 |
| UUCACUGUCUGCUUCUCUGAGAGAUAUUGA | 0.00381 ± 0.0035 |
| UAGUCUCUCACCUUCUCUGAGACAUUAACA | 0.239 ± 0.02 |
| UUCACUGUGACCUUCUCUGAGAGAAUAACA | 0.176 ± 0.029 |
| UAGUGACUCACCUUCUCUGAGAGAUAUUGA | 0.0155 ± 0.0056 |
| UAGACUGUCAGCUUCUCUGAGUGAUUAACA | 0.0107 ± 0.0021 |
| AUCACUCUCACGUUCUCUGAGAGAUUAACA | 0.46 ± 0.023 |
| UAGUGUGAGACCUUCUCUGAGAGAUUAACA | 0.251 ± 0.016 |
| UAGUGUGUCUACCUUCUCUGAGAGAUUAACA | 0.105 ± 0.013 |
| UAGUGAGUCAACCUUCUCUGAGAGAUUAACA | 0.172 ± 0.018 |
| UAGUGUGUCACCUUCUGUGACAGAUUAACA | 0.182 ± 0.051 |
| UACACUGUCUCCUUCUCUGAGAGAUUUACA | 0.261 ± 0.036 |
| AUCACUGUGUGCUUCUCUGAGAGAUUAACA | 0.0639 ± 0.011 |
| UUCACAGUCACCUUCUCUGAGAGAUUUUGA | 0.115 ± 0.027 |
| AUGACUGUCACCUUCUCUGAGACAUUAACA | 0.0568 ± 0.01 |
| UACACUGUCACGAACUCUGAGAGAUUAACA | 0.131 ± 0.019 |
| UAGUGACAGACCUCCUCUGAGAGAUUAACA | 0.326 ± 0.028 |
| AUCACUGUCACGUUCUGUGAGAGAUUAACA | 0.518 ± 0.026 |
| UACACUGUCACCUUCUCUGACAGUUUAACA | 0.0129 ± 0.0048 |
| UAGUGUGUCACCUUCUCUGACUCAUUUUGA | 0.0047 ± 0.0045 |
